Measured values published in PubChem BioAssay AID504832 (National Center for Advancing Translational Sciences (NCATS), 2011).
The whole screen tested about 310,000 compounds, of which about 18,000 (5.8%) were called active. The inconclusive results got no clear call from the source; some entries with a clear call stand among them for comparison. Calls follow the shape of the dose curve; as a rule, active = well fitted inhibition curve with a large enough effect; inconclusive = small, poorly fitted or top-dose-only effect, or another doubt; inactive = no such curve, though single readings can be large or run the other way. No potency is given beside an inconclusive call; the fits are too rough.

Assay: Primary qHTS for delayed death inhibitors of the malarial parasite plastid, 48 hour incubation
Conditions: P. falciparum luciferase growth in erythrocytes; series mostly up to 28.7 µM; activity change, negative = inhibition: at the top concentration
Method in brief: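 Luciferase-expressing P. falciparum in infected erythrocytes (2% hematocrit, 0.1% parasitemia final) in RPMI 1640/0.5% Albumax were exposed to compound for 48 hours at 37 C, 5% CO2; growth read as luminescence.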
% is scaled to controls: 0 for no effect and ±100 for the full control effect; potency is read from the fitted curve at half-maximal effect; tags tell the direction and shape of the fitted curve.

| Compound | Potency | activity change, negative = inhibition |
| --- | --- | --- |
| Cc1cc(C(=O)N2CCCC(C(=O)c3cccc(C(F)(F)F)c3)C2)n[nH]1 (stereo not drawn) | inconclusive [inhibitor, full curve, poor fit] |  |
| CC(C(=O)Nc1ccc(O)c(C(=O)O)c1)N1C(=O)/C(=C/c2cccs2)SC1=S (stereo not drawn) | inconclusive [inhibitor, partial curve, poor fit] |  |
| O=C(Nc1cccc(C(F)(F)F)c1)c1cnccn1 |  | inactive: 33.4% |
| O=C1COc2ccc(C(=O)COC(=O)Cc3ccccc3)cc2N1 | inconclusive [inhibitor, single point] |  |
| COc1ccc(N=C(C)C2=C(O)c3ccccc3C2=O)cc1 |  | inactive: 38.9% |
| CC(=O)c1ccccc1OCCOc1ncnc2sccc12 | inconclusive [inhibitor, partial curve, poor fit] |  |
| Cc1c(C)n(C(=O)CN2CCN(c3ccccn3)CC2)c2ccccc12 | inconclusive [inhibitor, single point] |  |
| COCCNCC(=O)C12CC3CC(CC(C3)C1)C2 |  | inactive: 18% |
| COCCCNC(=O)c1cc2cc([N+](=O)[O-])cc(OC)c2oc1=O | inconclusive [inhibitor, full curve, poor fit] |  |
| COC(=O)[C@@]12CCCCN1[C@H](c1ccc(-c3ccc(F)cc3)cc1)[C@@H]1C(=O)N(C)C(=O)[C@@H]12 | inconclusive [inhibitor, partial curve] |  |
| COc1ccc(S(=O)(=O)N(C)C)cc1NCC(=O)Nc1ccc(F)cc1F | inconclusive [inhibitor, single point] |  |
| CNc1ccccc1C(C)(C)c1cc(-c2cccc(Br)c2)no1 | inconclusive [inhibitor, single point] |  |
| O=C(N/N=C\c1ccc([N+](=O)[O-])o1)c1ccc(O)cc1 | active: 2.28 µM |  |
| COc1ccc(-c2nnc(SCC(=O)N(Cc3ccccc3)C(C)(C)C)o2)cc1OC | active: 11.7 µM |  |
| COc1ccc(OC)c(NC(=O)NCCc2c[nH]c3ccccc23)c1 | inconclusive [inhibitor, partial curve, poor fit] |  |
| CSc1nnc(C(C)(C)C)c(=O)n1/N=C/c1c(O)ccc2ccccc12 | inconclusive [inhibitor, single point] |  |
| CCOC(=O)c1nnn(-c2nonc2N)c1CSc1nnc(N)s1 |  | inactive: 7.87% |
| CC1=Nc2cc(C(=O)NCCCOC(C)C)ccc2Sc2ccccc21 | inconclusive [inhibitor, partial curve] |  |
| Cc1ccc(OCCCn2cc(C#N)c3ccccc32)cc1 |  | inactive: 55.6% |
| O=C(NCc1nc2ccccc2[nH]1)C1=C[C@@H](c2ccc(Br)cc2)C[C@@H](OCCCCO)O1 | inconclusive [inhibitor, partial curve, poor fit] |  |
| CC(CN1C(C)CCCC1C)OC(=O)c1ccc(Cl)cc1Cl (stereo not drawn) |  | inactive: 13.1% |
| CN(C)CC/C=C1/c2ccccc2Sc2c(O)cc(Cl)cc21 | inconclusive [inhibitor, full curve, poor fit] |  |
| CCCCc1ccc(NC2=NCCCS2)cc1 |  | inactive: 6.55% |

| Compound | Potency | activity change, negative = inhibition |
| --- | --- | --- |
| CN(Cc1cccnc1)C(=O)c1cc(S(=O)(=O)Nc2ccccc2F)ccc1Cl |  | inactive: 4.69% |
| COCCCN(C(=O)c1ccccc1)c1nc(-c2ccc(OC)cc2)cs1 | inconclusive [inhibitor, partial curve, poor fit] |  |
| Cc1ccccc1C(=O)NCC(c1ccco1)N1CCc2ccccc21 (stereo not drawn) | inconclusive [inhibitor, single point] |  |
| COc1ccccc1CNC(=O)C(=O)NCC1OCCN1S(=O)(=O)c1ccc(Br)cc1 (stereo not drawn) | inconclusive [inhibitor, partial curve, poor fit] |  |
| O=C(O)Cn1cc(/C=C2/NC(=O)N(c3ccc(Cl)cc3)C2=O)c2ccccc21 | inconclusive [inhibitor, full curve, poor fit] |  |
| COc1ccc2nc(NCc3ccccc3)[nH]c2c1 | inconclusive [inhibitor, partial curve] |  |
| CCOC(=O)N1CCN(C(=O)C2CCC(=O)N(Cc3cccc(C(F)(F)F)c3)C2)CC1 (stereo not drawn) | inconclusive [inhibitor, partial curve, poor fit] |  |
| Cc1ccccc1CNc1ccc(C(CC(N)=O)NC(=O)c2ccccc2)cc1[N+](=O)[O-] (stereo not drawn) | inconclusive [inhibitor, partial curve] |  |
| CCOc1c(C)cc(-c2ncccc2O)cc1C | inconclusive [inhibitor, partial curve] |  |
| O=C(Nc1ccccc1OC(F)F)c1ccc(-n2cncn2)c([N+](=O)[O-])c1 | inconclusive [inhibitor, single point] |  |
| S=c1[nH]nc(-c2cc(-c3ccccc3)n[nH]2)n1/N=C/c1ccccc1 |  | inactive: -12.3% |
| CCS(=O)(=O)c1nn2c(N)c(/C=C3/C=CC(=O)C(OC)=C3)c(=O)nc2s1 | inconclusive [inhibitor, partial curve, poor fit] |  |
| O=C1CC(NNc2ccccc2)C(=O)N1c1ccc(N2CCCCC2)cc1 (stereo not drawn) |  | inactive: 9.6% |
| Cc1cc(C)n(-c2nc(SCC(=O)O)c3c4c(sc3n2)COC(C)(C)C4)n1 | inconclusive [inhibitor, single point] |  |
| CC(=O)c1cccc(NC(=S)NC(=O)Cc2ccc(Cl)cc2)c1 |  | inactive: 6.52% |
| COc1ccc(-c2nn(C)c(=O)c3ccccc23)cc1CNC(=O)NC1CCCCC1 |  | inactive: -27.8% |
| CN(CC(=O)Nc1cccc(F)c1)C(=O)CSc1ccccc1 | inconclusive [inhibitor, single point] |  |
| Cc1ccc(C2CC(c3cccs3)=NN2S(=O)(=O)c2ccc(C)cc2)cc1 (stereo not drawn) | inconclusive [inhibitor, single point] |  |
| Cc1nnc(-n2ncc(C#N)c2N)c2nn(-c3cccc(Cl)c3)c(C)c12 | inconclusive [inhibitor, single point] |  |
| CC1CCN(S(=O)(=O)c2ccc(C(=O)N3CCN(c4ccccc4F)CC3)cc2)CC1 | inconclusive [inhibitor, partial curve] |  |
| CCOC(=O)C1(CCOc2ccccc2)CCN(Cc2ccc(OC)c(O)c2)CC1 | inconclusive [inhibitor, partial curve, poor fit] |  |
| OC(CN=c1sc2ccccc2n1CC(O)COc1ccccc1)COc1ccccc1 (stereo not drawn) | active: 13.1 µM |  |
| CCOC(=O)/C=C1\NC(C)(C)Cc2cc(OC)c(O)cc21 | inconclusive [inhibitor, partial curve] |  |

| Compound | Potency | activity change, negative = inhibition |
| --- | --- | --- |
| O=C(O)c1cccc(N/N=C(\N=Nc2ccccc2)c2ccccc2)c1 | inconclusive [inhibitor, partial curve, poor fit] |  |
| Cc1ccc(-c2nn(CC(=O)NN3CCOCC3)c(=O)c3ccccc23)cc1 |  | inactive: 25.8% |
| CCOC(=O)C1CCN(C(=O)COc2cccc(C)c2)CC1 |  | inactive: 8.11% |
| COc1cc(O)c(C(CC(=O)N2CCCC(C)C2)c2cc(OC)c(OC)c(OC)c2)c(OC)c1 (stereo not drawn) | inconclusive [inhibitor, partial curve] |  |
| CC(C)C[C@H]1C(=O)N2CCC[C@H]2[C@]2(O)O[C@](NC(=O)[C@@H]3C=C4c5cccc6[nH]c(Br)c(c56)CC4N(C)C3)(C(C)C)C(=O)N12 (stereo partly drawn) | active: 2.33 µM |  |
| COc1cccc(C2C(C#N)=C(N)N(N(C)C)C3=C2C(=O)CCC3)c1OC (stereo not drawn) | inconclusive [inhibitor, partial curve] |  |
| COc1ccc2oc(-c3ccc(NC(=O)c4ccc(N5CCOCC5)c([N+](=O)[O-])c4)cc3)nc2c1 | active: 2.33 µM |  |
| C=COCCCNc1ncnc2sc(-c3ccccc3)cc12 |  | inactive: -4.73% |
| CCOC(=O)c1c(N)sc2c(NC(C)=O)cccc12 | inconclusive [inhibitor, partial curve, poor fit] |  |
| O=C1CN(C(=O)c2c(F)cccc2F)C(c2ccc(F)cc2)c2cc(F)ccc2N1 (stereo not drawn) | inconclusive [inhibitor, partial curve, poor fit] |  |
| CSc1nc(S(=O)(=O)c2ccccc2)c(Cl)s1 | inconclusive [inhibitor, single point] |  |
| COc1cc([N+](=O)[O-])c(OC)cc1SCc1n[nH]c(=S)n1-c1ccc(F)cc1 |  | inactive: -27.4% |
| COc1ccc(N2CCN(C(=O)CCCC(=O)c3ccccc3)CC2)cc1 |  | inactive: 10.8% |
| O=C1C=C(NCCN2CCOCC2)C(=O)c2cnccc21 | active: 1.47 µM |  |
| CC1Cc2ccccc2N1C(=O)c1ccc(N2CCCC2)c([N+](=O)[O-])c1 (stereo not drawn) | inconclusive [inhibitor, single point] |  |
| O=C(NCC(O)COc1ccc([N+](=O)[O-])cc1)Nc1ccccc1 (stereo not drawn) |  | inactive: -2.2% |
| Cc1cnn(-c2cc(N/N=C/c3ccccc3)ncn2)c1 |  | inactive: -2.05% |
| O=C(CNc1cccc(S(=O)(=O)N2CCOCC2)c1)Nc1ccc(C(F)(F)F)cc1 | active: 6.57 µM |  |
| COC(=O)c1cc(=O)n(-c2ccccc2)c(=Nc2ccccc2)s1 | inconclusive [inhibitor, single point] |  |
| COC(=O)[C@@H]1Cc2c([nH]c3ccccc23)C(C)N1C(=O)c1ccccc1 (stereo partly drawn) |  | inactive: -3.42% |
| CCOC(=O)c1ccc2c(c1)nc(SC(C)C(=O)NCC1CCCO1)n2CC (stereo not drawn) | inconclusive [inhibitor, partial curve, poor fit] |  |
| C#CCOCCOCCOCCNc1nc(N2CCN(C(=O)C(Cc3ccc(O)cc3)n3cc(C(N)CC(C)C)nn3)CC2)nc(N2CCN(C(=O)C(Cc3ccc(O)cc3)n3cc(C(N)C(C)CC)nn3)CC2)n1 (stereo not drawn) | inconclusive [inhibitor, partial curve] |  |
